Measurements from the supplement of paper PMC4604168 (melanoma cell lines).
The other results are listed elsewhere or left out. Single values are uncertain, as repeats are few or missing.

Key:
Assay in all cases: cell count relative to DMSO control; melanoma cells; higher = more viable cells
Settings in all cases: library dose: low library concentration; 72 h
[1] = test system: MZ2-MEL
[2] = test system: MeWo
[3] = test system: RPMI7951
[4] = test system: RVH-421
[5] = test system: SkMel28
[6] = test system: SkMel2
[7] = test system: SkMel30
[8] = test system: SkMel5
[9] = test system: UACC257
[10] = test system: UACC62
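Also: cell number obtained by counting DAPI-stained nuclei in high-throughput microscope images with image analysis software, screen run in 1,536-well plates.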

| Structure (SMILES) | cell count [1] | cell count [2] | cell count [3] | cell count [4] | cell count [5] | cell count [6] | cell count [7] | cell count [8] | cell count [9] | cell count [10] |
| --- | --- | --- | --- | --- | --- | --- | --- | --- | --- | --- |
| N#CC[C@H](C1CCCC1)n1cc(-c2ncnc3[nH]ccc23)cn1 [ruxolitinib] + O=c1cc(-c2cccc3c2Sc2ccccc2S3)oc(N2CCOCC2)c1 [KU55933] (first compound 1 µM, partner dose 1 µM) | 111% | 86.9% | 107% | 124% | 98.1% | 108% | 84.7% | 93.7% | 99.1% | 107% |
| Cc1cc(Nc2cc(N3CCN(C)CC3)nc(Sc3ccc(NC(=O)C4CC4)cc3)n2)n[nH]1 [Tozasertib] + CC(C)(C)c1cnc(CSc2cnc(NC(=O)C3CCNCC3)s2)o1 [SNS-032] (first compound 0.006 µM, partner dose 0.01 µM) | 94.9% | 92% | 104% | 89.8% | 87.9% | 96.2% | 92.2% | 92.9% | 80.3% | 81.6% |
| Cc1cc(Nc2cc(N3CCN(C)CC3)nc(Sc3ccc(NC(=O)C4CC4)cc3)n2)n[nH]1 [Tozasertib] + COc1cc2ncnc(Nc3ccc(Oc4ccccc4)cc3)c2cc1OC [SrcI1] (first compound 0.006 µM, partner dose 2 µM) | 94.5% | 88% | 101% | 414% | 74.5% | 111% | 66.3% | 91.3% | 66.6% | 75.3% |
| CC[C@]1(O)C[C@H]2CN(CCc3c([nH]c4ccccc34)[C@@](C(=O)OC)(c3cc4c(cc3OC)N(C=O)[C@H]3[C@@](O)(C(=O)OC)[C@H](OC(C)=O)[C@]5(CC)C=CCN6CC[C@]43[C@@H]65)C2)C1 [vincristine] + COc1ccc(-c2ccc3c(N4CCOCC4)nc(N4C[C@@H](C)O[C@@H](C)C4)nc3n2)cc1CO [KU0063794] (first compound 0.0001 µM, partner dose 0.02 µM) | 92.7% | 83.3% | 67.4% | 94.9% | 79.6% | 94.7% | 63.4% | 87.9% | 58.9% | 67.3% |
| N#CC[C@H](C1CCCC1)n1cc(-c2ncnc3[nH]ccc23)cn1 [ruxolitinib] + NC(=O)Nc1cc(-c2cccc(F)c2)sc1C(=O)N[C@H]1CCCNC1 [AZD7762] (first compound 1 µM, partner dose 0.02 µM) | 114% | 98.1% | 81.6% | 94.3% | 121% | 105% | 133% | 107% | 126% | 121% |
